Measurements as given in paper PMC11290676.
Results are given in words; binding and its absence hold for the method and conditions named. Binding seen in cells or lysates may run through a third protein. Some binding calls cover weakened binding; strength is not graded here.

Sequences of proteins named here, by UniProt entry; tags and fusion partners are left off. A change or cut given only in a name is not applied to a line headed by its entry. A line that says so, or that is headed by a name, gives the form on record, which may keep a tag or linker. Residues count along the entry.
UniProt Q91813: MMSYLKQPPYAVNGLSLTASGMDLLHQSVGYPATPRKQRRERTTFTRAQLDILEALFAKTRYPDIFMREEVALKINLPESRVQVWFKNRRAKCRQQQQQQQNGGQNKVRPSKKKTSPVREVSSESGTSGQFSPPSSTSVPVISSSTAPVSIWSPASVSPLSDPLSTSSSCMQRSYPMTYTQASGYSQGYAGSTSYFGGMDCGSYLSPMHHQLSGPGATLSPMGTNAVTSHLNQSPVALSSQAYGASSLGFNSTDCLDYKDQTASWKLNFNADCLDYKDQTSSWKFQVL
Myc-Otx2 ΔAD (region containing the homeodomain and the repression domain, aa 1-184): residues 1-184 of Q91813
Myc-Otx2-4E (phosphomimetic mutant of Otx2) (Q91813, form named): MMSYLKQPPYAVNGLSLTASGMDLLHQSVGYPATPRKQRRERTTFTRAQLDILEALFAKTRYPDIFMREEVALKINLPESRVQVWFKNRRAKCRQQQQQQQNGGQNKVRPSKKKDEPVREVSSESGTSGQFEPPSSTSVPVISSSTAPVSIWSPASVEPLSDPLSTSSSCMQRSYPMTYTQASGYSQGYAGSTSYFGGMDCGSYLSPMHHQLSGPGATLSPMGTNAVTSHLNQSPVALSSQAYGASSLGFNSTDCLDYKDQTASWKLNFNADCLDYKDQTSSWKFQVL
Myc-Otx2-4A (nonphosphorylatable mutant of Otx2) (Q91813, form named): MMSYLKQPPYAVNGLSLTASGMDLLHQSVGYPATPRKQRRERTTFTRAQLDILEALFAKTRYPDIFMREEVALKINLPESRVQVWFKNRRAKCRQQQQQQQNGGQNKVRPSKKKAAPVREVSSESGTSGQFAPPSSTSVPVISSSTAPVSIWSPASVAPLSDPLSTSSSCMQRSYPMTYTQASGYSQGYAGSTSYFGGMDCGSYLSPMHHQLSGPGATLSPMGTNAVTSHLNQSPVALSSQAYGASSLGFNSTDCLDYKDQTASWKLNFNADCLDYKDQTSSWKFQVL
Myc-tagged Zbtb11 (Myc-Zbtb11), full-length Zbtb11.S (A0A1L8H8N5, form named): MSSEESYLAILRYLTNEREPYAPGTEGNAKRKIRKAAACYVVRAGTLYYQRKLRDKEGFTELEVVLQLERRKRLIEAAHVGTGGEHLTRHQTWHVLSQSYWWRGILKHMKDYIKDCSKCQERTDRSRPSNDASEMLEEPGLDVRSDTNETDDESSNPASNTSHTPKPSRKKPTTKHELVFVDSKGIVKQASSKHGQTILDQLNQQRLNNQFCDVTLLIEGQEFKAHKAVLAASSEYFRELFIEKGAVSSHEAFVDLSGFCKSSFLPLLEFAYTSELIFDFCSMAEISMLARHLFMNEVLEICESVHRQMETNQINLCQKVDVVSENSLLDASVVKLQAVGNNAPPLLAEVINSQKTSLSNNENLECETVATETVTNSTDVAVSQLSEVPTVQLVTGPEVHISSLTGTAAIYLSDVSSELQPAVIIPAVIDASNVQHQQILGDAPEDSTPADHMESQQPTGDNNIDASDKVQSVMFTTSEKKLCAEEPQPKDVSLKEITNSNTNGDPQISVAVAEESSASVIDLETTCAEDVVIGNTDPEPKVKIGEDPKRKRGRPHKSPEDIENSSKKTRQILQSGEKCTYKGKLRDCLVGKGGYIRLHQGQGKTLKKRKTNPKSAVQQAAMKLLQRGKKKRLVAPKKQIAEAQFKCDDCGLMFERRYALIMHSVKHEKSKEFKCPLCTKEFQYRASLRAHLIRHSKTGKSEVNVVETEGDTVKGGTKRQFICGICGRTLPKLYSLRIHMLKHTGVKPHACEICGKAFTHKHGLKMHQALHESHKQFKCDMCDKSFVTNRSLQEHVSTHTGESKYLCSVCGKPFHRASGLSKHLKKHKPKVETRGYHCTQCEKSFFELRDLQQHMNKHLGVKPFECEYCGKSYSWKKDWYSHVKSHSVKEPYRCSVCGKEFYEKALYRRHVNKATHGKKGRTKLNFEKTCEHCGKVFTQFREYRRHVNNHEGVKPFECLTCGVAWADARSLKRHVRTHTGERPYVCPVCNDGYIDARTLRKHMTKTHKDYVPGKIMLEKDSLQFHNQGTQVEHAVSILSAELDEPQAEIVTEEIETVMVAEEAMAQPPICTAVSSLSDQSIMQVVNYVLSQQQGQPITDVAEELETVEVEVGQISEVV
Venus-Znf (C-terminal region of Zbtb11.S containing the Znf domains, CR2 and CR3, aa 622-1118) (A0A1L8H8N5, form named): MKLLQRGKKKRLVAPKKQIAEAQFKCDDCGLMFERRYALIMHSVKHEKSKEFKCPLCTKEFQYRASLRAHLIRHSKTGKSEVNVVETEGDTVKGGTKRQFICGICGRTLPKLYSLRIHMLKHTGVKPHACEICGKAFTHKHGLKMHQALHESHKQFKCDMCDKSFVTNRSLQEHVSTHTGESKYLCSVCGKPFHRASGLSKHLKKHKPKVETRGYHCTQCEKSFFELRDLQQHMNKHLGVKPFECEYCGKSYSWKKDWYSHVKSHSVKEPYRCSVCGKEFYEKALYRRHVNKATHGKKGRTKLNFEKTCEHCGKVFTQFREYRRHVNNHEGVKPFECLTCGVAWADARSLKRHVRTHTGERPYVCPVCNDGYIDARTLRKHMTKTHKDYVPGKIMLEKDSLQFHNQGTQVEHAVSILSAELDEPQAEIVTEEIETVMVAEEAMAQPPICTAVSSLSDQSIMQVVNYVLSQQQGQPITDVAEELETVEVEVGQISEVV
Venus-NLS-BTB (N-terminal region of Zbtb11.S including the HHCC motif and BTB domain, aa 1-580, with SV40 large T NLS) (A0A1L8H8N5, form named): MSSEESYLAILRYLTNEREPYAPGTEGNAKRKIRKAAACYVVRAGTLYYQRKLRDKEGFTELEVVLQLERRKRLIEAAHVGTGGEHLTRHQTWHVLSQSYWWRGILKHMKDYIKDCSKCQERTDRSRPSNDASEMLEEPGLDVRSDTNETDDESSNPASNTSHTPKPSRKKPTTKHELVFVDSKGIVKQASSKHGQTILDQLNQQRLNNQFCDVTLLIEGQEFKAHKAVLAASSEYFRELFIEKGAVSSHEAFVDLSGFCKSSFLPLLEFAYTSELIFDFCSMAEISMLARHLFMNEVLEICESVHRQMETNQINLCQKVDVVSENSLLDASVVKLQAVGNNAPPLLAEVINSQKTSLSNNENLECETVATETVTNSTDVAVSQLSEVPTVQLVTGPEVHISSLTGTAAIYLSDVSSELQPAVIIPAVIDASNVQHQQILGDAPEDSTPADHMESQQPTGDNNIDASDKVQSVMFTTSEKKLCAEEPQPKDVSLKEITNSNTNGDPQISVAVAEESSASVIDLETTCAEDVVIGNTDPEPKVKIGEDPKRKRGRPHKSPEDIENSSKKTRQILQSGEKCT

Key:
Experiment in all cases: co-IP; lysates of mRNA-injected embryos at gastrula stages (10.5-11); immunoprecipitated with anti-Myc antibody (2 h, 4°C) and protein G- or protein A-agarose beads; western blot with anti-GFP, anti-HA or anti-Myc; in Fig 8B with co-expressed Venus-Zbtb11 or Venus-NLS
[1] = molecular target: Myc-tagged Zbtb11 (Myc-Zbtb11), full-length Zbtb11.S (X. laevis)
[2] = molecular target: Myc-tagged Otx2 (Myc-Otx2), full length, wild type (UniProt Q91813)
[3] = molecular target: Myc-Otx2 ΔAD (region containing the homeodomain and the repression domain, aa 1-184) (UniProt Q91813)
[4] = molecular target: Myc-Otx2-4E (phosphomimetic mutant of Otx2) (UniProt Q91813)
[5] = molecular target: Myc-Otx2-4A (nonphosphorylatable mutant of Otx2) (UniProt Q91813)

| binding [1] | binding [2] | binding [3] | binding [4] | binding [5] | Substance |
| --- | --- | --- | --- | --- | --- |
| binds | binds |  |  |  | Venus-Znf (C-terminal region of Zbtb11.S containing the Znf domains, CR2 and CR3, aa 622-1118) (from UniProt A0A1L8H8N5 622-1118) (domain or fragment) |
| binds | binds | binds |  |  | Venus-fused Zbtb11 (Venus-Zbtb11), full-length Zbtb11.S (from UniProt A0A1L8H8N5 1-1118) |
|  | binds |  | binds | binds weakly | HA-tagged Zbtb11 (HA-Zbtb11), full-length Zbtb11.S (from UniProt A0A1L8H8N5 1-1118) |
| binds | no binding |  |  |  | Venus-NLS-BTB (N-terminal region of Zbtb11.S including the HHCC motif and BTB domain, aa 1-580, with SV40 large T NLS) (from UniProt A0A1L8H8N5 1-580) (domain or fragment) |
